Assay results reported in PubChem BioAssay AID1030 (National Center for Advancing Translational Sciences (NCATS), 2008).
Out of some 220,000 compounds screened, about 16,000 (7.3%) were called active. Inconclusive results, whose numbers are uncertain, are shown with a selection of clear calls. The call rests on the fitted dose curve; in most records, active means well fitted inhibition curve with a large enough effect (not every such curve was filed as active); inconclusive means small, poorly fitted or top-dose-only effect, or another doubt; inactive means no such curve, though single readings can be large or run the other way. No potency is given beside an inconclusive call; the fits are too rough.

These compounds were tested against Aldehyde dehydrogenase 1A1 (Homo sapiens) (UniProt P00352) (assay: qHTS Assay for Inhibitors of Aldehyde Dehydrogenase 1 (ALDH1A1)). Settings: Purified ALDH1A1, NADH fluorescence, propionaldehyde substrate; series mostly up to 75.3 µM.
Chain of UniProt P00352 (P00352 whole entry, looked up): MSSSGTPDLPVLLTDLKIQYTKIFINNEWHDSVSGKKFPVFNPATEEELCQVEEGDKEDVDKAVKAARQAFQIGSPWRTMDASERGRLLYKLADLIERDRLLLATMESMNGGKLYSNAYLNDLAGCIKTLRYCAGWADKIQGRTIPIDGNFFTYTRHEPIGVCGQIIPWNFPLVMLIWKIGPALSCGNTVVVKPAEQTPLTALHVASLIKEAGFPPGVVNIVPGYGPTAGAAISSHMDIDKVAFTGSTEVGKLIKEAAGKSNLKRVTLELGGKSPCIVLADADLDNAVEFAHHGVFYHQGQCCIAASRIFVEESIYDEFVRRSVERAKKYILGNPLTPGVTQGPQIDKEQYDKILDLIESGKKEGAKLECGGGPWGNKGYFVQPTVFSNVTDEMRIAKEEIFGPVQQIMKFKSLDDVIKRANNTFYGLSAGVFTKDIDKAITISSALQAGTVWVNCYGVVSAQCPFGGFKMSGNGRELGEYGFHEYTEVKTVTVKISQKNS
Potency means the concentration at half of the fitted maximal effect; tags describe the fitted curve by direction and shape.
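Wherever activity, negative = inhibition is given: plate controls were no enzyme wells and a reference inhibitor.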

| Structure (SMILES) | Potency | activity, negative = inhibition |
| --- | --- | --- |
| CCOc1ccc(N2C(=O)S/C(=C\c3cccn3C)C2=O)cc1 | inconclusive [inhibitor, single point] |  |
| COc1ccc(N2CCN(C(=O)CSc3nnc(Cn4nnc5ccccc54)n3C)CC2)cc1 | active: 14.1 µM |  |
| O=S(=O)(c1ccc(F)cc1)N1CCN(C(=S)NCc2ccccc2)CC1 | inconclusive [inhibitor, partial curve] |  |
| CC(C)CN=Cc1c(O)c([N+](=O)[O-])cc2oc3c(c12)CCCC3 | active: 28.2 µM |  |
| CC1=C(C(=O)Nc2ccccc2C)C(c2cccs2)NC(=S)N1 (configuration not stated) | active: 12.6 µM |  |
| CC(C)(C)NC(=O)CSc1nc(-c2ccccc2)c(-c2ccccc2)[nH]1 | inactive |  |
| O=S(=O)(NC1CCCCC1Oc1ccccc1)c1ccccc1 (configuration not stated) | active: 15.8 µM |  |
| O=C1C2=CC[C@H]3C(=O)N(c4cccc(Oc5ccccc5)c4)C(=O)[C@@H]3[C@@H]2[C@H](O)[C@@H]2O[C@H]12 |  | inactive: -2.92% [at 13.5 µM] |
| C[C@H](NC(=O)N1CCc2nc(COc3ccccc3)c3c(c2C1)CO[C@@H](C)C3)c1ccccc1 |  | inactive: -9.51% [at 13.5 µM] |
| CC(C(=O)O)C1SC(=O)NC1=O (configuration not stated) | inactive |  |
| Cc1nc(S(=O)(=O)c2ccc(Br)cc2)nc2c1CCC2 | inactive |  |
| COc1ccc(Cl)cc1NC(=S)N1CCN(C(=O)C2CCCO2)CC1 (configuration not stated) | inconclusive [inhibitor, single point] |  |
| CCCOC(=O)CSc1nc(N)c(C#N)c(CC)c1C#N | inconclusive [inhibitor, partial curve] |  |
| CCN(CC)c1ccc(-c2nn3c(-c4ccccc4OC)nnc3s2)cc1 | inconclusive [inhibitor, partial curve] |  |
| Cc1ccc2[nH]c(=O)c(CN(CCCO)S(=O)(=O)c3c(C)ccc4nsnc34)cc2c1 | active: 12.6 µM |  |
| CC1CCC/C(=C(\C#N)c2nc(-c3cc4ccccc4oc3=O)cs2)C1 (configuration not stated) | inconclusive [inhibitor, partial curve] |  |
| COc1ccc(N=C2NC(=O)/C(=C/c3ccc(O)c(OC)c3)S2)cc1 | inactive |  |
| CCOC(=O)CSc1nnc(-c2cccs2)n1-c1ccccc1 | inconclusive [inhibitor, single point] |  |
| OCCC1CN(Cc2ccon2)CCN1CCc1ccccc1 (configuration not stated) | inactive |  |
| Cc1cc(=O)oc(C)c1C(=O)OCC(=O)c1ccc2ccccc2c1 | inconclusive [inhibitor, partial curve] |  |
| CCCc1cc(=O)oc2cc(OCc3ccc(OC)cc3)c(Cl)cc12 | inconclusive [inhibitor, partial curve] |  |
| COc1ccc(Cl)cc1C(=O)CSc1nnnn1C1CCCC1 | active: 2 µM |  |
| N#Cc1ccccc1CN1C(=O)NC(Cc2c[nH]c3ccccc23)C1=O (configuration not stated) | inactive |  |
| O=C(Nc1cccc([N+](=O)[O-])c1)c1ccc2ccccc2c1O | inactive |  |

| Structure (SMILES) | Potency | activity, negative = inhibition |
| --- | --- | --- |
| CC1CCCCN1S(=O)(=O)c1ccc(C(=O)Nc2ccccc2-c2nc3ccccc3s2)cc1 (configuration not stated) | inactive |  |
| COc1ccccc1C(=O)NCc1ccc(-c2nc3ccccc3s2)cc1 | inconclusive [inhibitor, single point] |  |
| Cc1ccc2[nH]cc(CCNC(=O)CN3C(=O)c4ccccc4C3=O)c2c1 | inconclusive [inhibitor, single point] |  |
| Cc1ccc(NC(=S)NCc2ccc3c(c2)OCO3)cc1 | inconclusive [inhibitor, partial curve, poor fit] |  |
| O=C(NNC(=O)C1CCN(c2ncccn2)CC1)c1ccc(Cl)cc1 | inactive |  |
| COc1ccc(N=C2SC(C(=O)Nc3ccc(F)cc3)CC(=O)N2C)cc1 (configuration not stated) | inactive |  |
| CCOC(=O)c1ccc(NC(=O)C(C)Sc2nc(O)c(-c3ccccc3)c(=O)[nH]2)cc1 (configuration not stated) | inactive |  |
| COc1ccc(N2CCN(C(=O)c3cn(C4CCCC4)c(=O)c4c3c3ccccc3n4C)CC2)cc1 | inconclusive [inhibitor, single point] |  |
| COCCCNC(=O)C1CCN(c2nc(C)cc(C)n2)CC1 | inconclusive [inhibitor, partial curve] |  |
| O=C1CC(c2ccc(Br)cc2)NC(c2ccc(Br)cc2)C1c1ccccc1 (configuration not stated) | inconclusive [inhibitor, full curve] |  |
| COc1ccc(CNC(=O)C(c2ccncc2)N(C(=O)Cc2cccs2)c2cccc(C)c2)cc1 (configuration not stated) | inconclusive [inhibitor, partial curve] |  |
| Cc1c(Nc2nc3ccccc3nc2NS(=O)(=O)c2ccccc2)c(=O)n(-c2ccccc2)n1C | inconclusive [inhibitor, single point] |  |
| O=c1[nH]c(Nc2ccc(F)cc2)cc2ccccc12 | inconclusive [inhibitor, partial curve] |  |
| COC(=O)C1=C(N)c2c(F)cccc2C1(C#N)c1ccccc1 (configuration not stated) | inconclusive [inhibitor, single point] |  |
| O=C(C1CCCN(Cc2ccccc2C(F)(F)F)C1)N1CCCCC1 (configuration not stated) | inactive |  |
| COc1cccc(Cn2c(-c3nonc3N)nc3ccccc32)c1 | inactive |  |
| C[C@@H](C(=O)Nc1ccc2ccccc2c1)[C@H]1C[C@]1(C)[C@H](NC(=O)c1ccccc1)c1ccccc1 | active: 0.794 µM |  |
| CCN(CC)CCN1C(=O)C(=O)/C(=C(/O)c2c(C)[nH]c(C(=O)OC)c2C)C1c1cccs1 (configuration not stated) | inconclusive [inhibitor, full curve] |  |
| Cc1ccc(S(=O)(=O)n2nnc3ccccc32)c(C)c1C | inconclusive [inhibitor, single point] |  |
| COc1cccc(CNC(=O)CCC2CCCN(C(=O)CCn3cncn3)C2)c1 (configuration not stated) | inactive |  |
| Fc1ccc(-n2c(CN3CCCCC3)n[nH]c2=S)cc1 | inconclusive [inhibitor, single point] |  |
| CC1CCc2nn(CC(=O)NCCN3CCCCC3C)cc2C1 (configuration not stated) | inconclusive [inhibitor, single point] |  |
| COc1ccc(-c2[nH]c(-c3ccc(C)cc3)nc2SCC(=O)NC2CCCC2)cc1 | inconclusive [inhibitor, partial curve] |  |
